Changes are numbered by the printed parent chain.
What was measured:
Assay in all cases: neutralization ELISA vs Tie-2-Fc
murine Ang-1 = target: T1, murine Ang-1 (murine, UniProt O08538 20-498, limits assumed)
T1 construct: also called mAng-1
T1 sequence (looked up): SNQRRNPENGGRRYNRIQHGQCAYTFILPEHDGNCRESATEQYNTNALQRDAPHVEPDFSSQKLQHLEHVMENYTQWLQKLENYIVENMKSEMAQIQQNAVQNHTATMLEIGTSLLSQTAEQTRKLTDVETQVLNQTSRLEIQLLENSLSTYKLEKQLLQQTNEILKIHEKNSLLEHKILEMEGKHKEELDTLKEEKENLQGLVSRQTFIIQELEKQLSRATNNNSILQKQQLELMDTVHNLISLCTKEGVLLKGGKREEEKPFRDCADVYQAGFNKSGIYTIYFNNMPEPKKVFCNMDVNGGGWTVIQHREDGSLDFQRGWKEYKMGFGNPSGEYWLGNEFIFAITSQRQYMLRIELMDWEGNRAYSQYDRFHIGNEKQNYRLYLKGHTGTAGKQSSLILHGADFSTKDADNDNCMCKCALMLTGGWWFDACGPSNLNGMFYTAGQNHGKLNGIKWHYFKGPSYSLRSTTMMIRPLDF
Protocol: (§1) Plates were incubated at room temperature for about 1 hour, after which they were washed five times with PBS containing about 0.1 percent Tween-20. […] Absorbance was then read in a spectrophotomer at 370 nm.

cyno Ang-2 = target: T2, cyno Ang-2 (cyno, UniProt A0A2K5VNX6 19-496)
T2 construct: also called cAng-2
T2 sequence: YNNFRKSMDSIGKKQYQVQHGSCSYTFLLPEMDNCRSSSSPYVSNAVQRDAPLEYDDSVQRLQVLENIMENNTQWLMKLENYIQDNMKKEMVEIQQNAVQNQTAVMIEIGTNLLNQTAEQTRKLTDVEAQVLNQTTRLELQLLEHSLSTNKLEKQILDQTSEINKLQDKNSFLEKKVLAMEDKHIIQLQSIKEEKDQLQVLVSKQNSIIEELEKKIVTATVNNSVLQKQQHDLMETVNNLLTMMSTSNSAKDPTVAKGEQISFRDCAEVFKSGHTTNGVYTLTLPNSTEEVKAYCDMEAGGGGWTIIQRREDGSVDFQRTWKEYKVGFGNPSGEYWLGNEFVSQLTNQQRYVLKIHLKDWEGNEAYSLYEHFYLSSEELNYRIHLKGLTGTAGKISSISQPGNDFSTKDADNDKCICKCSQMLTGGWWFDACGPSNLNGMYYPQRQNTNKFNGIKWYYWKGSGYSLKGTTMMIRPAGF
Protocol: as §1

murine Ang-2 = target: T3, murine Ang-2 (murine, UniProt O35608 19-496, limits assumed)
T3 construct: also called mAng-2; mouse Ang-2
T3 sequence (looked up): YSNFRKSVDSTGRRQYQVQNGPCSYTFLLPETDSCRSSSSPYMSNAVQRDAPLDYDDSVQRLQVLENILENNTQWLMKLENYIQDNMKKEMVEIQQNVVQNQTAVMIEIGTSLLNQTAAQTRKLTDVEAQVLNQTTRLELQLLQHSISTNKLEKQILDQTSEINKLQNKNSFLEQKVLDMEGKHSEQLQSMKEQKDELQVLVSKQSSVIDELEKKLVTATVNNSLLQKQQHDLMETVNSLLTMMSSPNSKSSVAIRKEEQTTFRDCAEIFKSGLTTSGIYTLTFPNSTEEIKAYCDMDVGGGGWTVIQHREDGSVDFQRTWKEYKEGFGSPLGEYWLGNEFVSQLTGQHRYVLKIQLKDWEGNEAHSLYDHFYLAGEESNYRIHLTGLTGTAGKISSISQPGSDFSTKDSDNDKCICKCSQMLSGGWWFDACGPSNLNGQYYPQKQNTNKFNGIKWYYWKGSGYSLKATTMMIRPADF
Protocol: as §1

rat Ang-2 = target: T4, rat Ang-2 (rat, UniProt O35462 19-496, limits assumed)
T4 construct: also called rAng-2
T4 sequence (looked up): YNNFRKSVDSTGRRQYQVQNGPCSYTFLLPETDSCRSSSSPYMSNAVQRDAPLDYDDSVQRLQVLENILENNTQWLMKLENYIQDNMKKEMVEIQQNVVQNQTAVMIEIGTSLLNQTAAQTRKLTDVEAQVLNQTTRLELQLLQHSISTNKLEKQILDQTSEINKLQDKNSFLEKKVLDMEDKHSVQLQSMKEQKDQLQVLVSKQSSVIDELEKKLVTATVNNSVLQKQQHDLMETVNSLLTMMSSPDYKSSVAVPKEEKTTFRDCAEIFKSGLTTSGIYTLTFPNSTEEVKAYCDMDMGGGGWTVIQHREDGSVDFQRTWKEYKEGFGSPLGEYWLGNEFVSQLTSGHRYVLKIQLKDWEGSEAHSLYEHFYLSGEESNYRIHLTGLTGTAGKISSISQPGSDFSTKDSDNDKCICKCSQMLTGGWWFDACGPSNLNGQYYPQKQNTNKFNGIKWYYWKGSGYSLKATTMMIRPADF
Protocol: as §1

human Ang-2 = target: T5, human Ang-2 (human, UniProt O15123 19-496, limits assumed)
T5 construct: Sources differ by assay: R&D Systems 623-AN (mixture of 2 truncated versions) for initial screening; also called hAng-2; huAng-2
T5 sequence (looked up): T2 sequence with G258E, V279I, L284F, V291I, A410G, G468A, G477D
Protocol: as §1

B1: 2xCon4 (C) 1K (Fc fusion)
chain: [human IgG1 Fc not written out]GGGGGAQQEECEWDPWTCEHMGSGSATGGSGSTASSGSGSATHQEECEWDPWTCEHMLE
notes: also called Pb5714
An IC50 (murine Ang-1) of 3.2 nM, an IC50 (cyno Ang-2) of 0.047 nM and an IC50 (murine Ang-2) of 0.035 nM were found for B1 in this work. The IC50 (rat Ang-2) was 0.024 nM and the IC50 (human Ang-2) was 0.026 nM.
